Test results published in article PMC4336329 (PLoS ONE, 2015).
Screen size: about 310,000 compounds; about 14,000 (4.5%) showed an effect of 50% or more. The effect is printed as a negative number. Some of the results follow.

Target: human ether-à-go-go-related gene (hERG) potassium channel (human, UniProt Q12809)
Assay: primary screen, population patch clamp on CHO cells stably expressing hERG
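Note: peak tail current of the secondary pulse compared with the same well before compound.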

Chain of human ether-à-go-go-related gene (hERG) potassium channel (Q12809 whole entry, looked up): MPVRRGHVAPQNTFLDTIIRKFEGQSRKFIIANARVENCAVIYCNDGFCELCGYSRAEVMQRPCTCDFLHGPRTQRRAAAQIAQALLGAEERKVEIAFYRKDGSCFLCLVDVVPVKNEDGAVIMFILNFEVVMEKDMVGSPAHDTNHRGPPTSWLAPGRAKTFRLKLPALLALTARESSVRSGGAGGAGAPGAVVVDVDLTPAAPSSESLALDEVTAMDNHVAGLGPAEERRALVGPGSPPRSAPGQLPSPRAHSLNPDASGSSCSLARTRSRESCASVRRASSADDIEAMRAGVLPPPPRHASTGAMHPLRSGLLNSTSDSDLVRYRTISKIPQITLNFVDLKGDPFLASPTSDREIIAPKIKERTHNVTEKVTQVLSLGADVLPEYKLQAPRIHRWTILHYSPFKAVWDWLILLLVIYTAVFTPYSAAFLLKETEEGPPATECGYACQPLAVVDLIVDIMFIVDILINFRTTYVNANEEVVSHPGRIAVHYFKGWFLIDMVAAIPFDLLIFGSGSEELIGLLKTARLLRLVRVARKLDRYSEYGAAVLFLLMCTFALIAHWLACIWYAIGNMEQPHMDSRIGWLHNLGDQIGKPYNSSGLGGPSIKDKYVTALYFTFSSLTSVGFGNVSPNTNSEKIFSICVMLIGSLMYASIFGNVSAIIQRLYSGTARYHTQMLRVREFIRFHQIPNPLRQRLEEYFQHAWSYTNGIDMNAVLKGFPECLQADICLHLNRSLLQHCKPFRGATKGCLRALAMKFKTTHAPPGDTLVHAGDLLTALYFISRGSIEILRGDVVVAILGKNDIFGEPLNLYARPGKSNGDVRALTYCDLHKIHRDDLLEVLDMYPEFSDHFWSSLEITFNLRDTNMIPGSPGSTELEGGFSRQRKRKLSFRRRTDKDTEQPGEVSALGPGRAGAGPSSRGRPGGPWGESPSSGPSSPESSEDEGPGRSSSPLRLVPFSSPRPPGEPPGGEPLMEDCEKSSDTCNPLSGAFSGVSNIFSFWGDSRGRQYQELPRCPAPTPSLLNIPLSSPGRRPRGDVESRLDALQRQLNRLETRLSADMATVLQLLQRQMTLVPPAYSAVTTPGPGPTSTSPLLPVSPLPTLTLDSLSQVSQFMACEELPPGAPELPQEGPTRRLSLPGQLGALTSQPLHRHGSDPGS

Compared with `Cc1ccc(C(=O)NCCNC(=O)c2ccccc2)cc1`, `Cc1ccc(-c2nn(-c3ccccc3)cc2NC(=O)CCl)cc1` is lower in “hERG current change (%, negative = inhibition) at 10uM” value: 8.24% for the first, -1.64% for the second.

Going from `O=C(N/N=C/c1cccn1-c1ccc(O)cc1)c1cccc2ccccc12` to `O=C(Nc1nc(-c2cccc3ccccc23)cs1)c1cnccn1`, the “hERG current change (%, negative = inhibition) at 10uM” value rises from 1.35% to 11.6%.

Compared with `CC1Cn2c(nnc2-c2ccccc2O)S1` (centres unmarked), `Cc1ccccc1-c1nnn(CC(=O)NCc2ccc3c(c2)OCO3)n1` is higher in “hERG current change (%, negative = inhibition) at 10uM” value: -0.158% for the first, 27.7% for the second.

Going from `c1ccc(-n2c(Cc3cccnc3)nc3cnccc32)cc1` to `COc1cccc(/C=N/Nc2nc3ccccc3n3cnnc23)c1`, the “hERG current change (%, negative = inhibition) at 10uM” value rises from -50.5% to 4.59%.

Going from `NS(=O)(=O)c1cccc(NC(=O)COC(=O)Cc2n[nH]c(=O)c3ccccc23)c1` to `Cc1ccnc(NC(=O)CCc2c[nH]c3ccccc23)c1`, the “hERG current change (%, negative = inhibition) at 10uM” value falls from 3.87% to 0.429%.

First: CCOC(=O)C1CCCN(C(=S)Nc2ccc(OC)cc2)C1 (centres unmarked)
Second: CCOC(=O)C1CCCN(CCC(=O)Nc2cccc(Cl)c2C)C1.Cl (centres unmarked)
The “hERG current change (%, negative = inhibition) at 10uM” value of the first is higher: 5.25% for the first, -12.8% for the second.

Going from `Cn1c(=O)n(Cc2ccc(F)cc2)c(=O)c2c1nc1n2CCN1Cc1ccco1` to `CN1C(=O)/C(=C/c2ccc(OCc3ccc(F)cc3)cc2)N(C)C1=S`, the “hERG current change (%, negative = inhibition) at 10uM” value rises from -55.4% to 10.8%.

Going from `Cc1cnc(Sc2ncccc2[N+](=O)[O-])nc1` to `O=C(CSCCc1ccccn1)Nc1ccc(Br)cn1`, the “hERG current change (%, negative = inhibition) at 10uM” value falls from -2.92% to -4.13%.

First: CC(C)(C)OC(=O)[C@H](Cc1ccccc1)NC(=O)c1nc[nH]c1C(=O)N[C@@H](Cc1ccccc1)C(=O)OC(C)(C)C
Second: CC(=O)Oc1ccc(NC(=O)Cc2ccccc2)c(C(=O)O)c1
The “hERG current change (%, negative = inhibition) at 10uM” value of the first is higher: 9.91% for the first, 9.3% for the second.

First: CCc1ccccc1N1C(=O)NC(=O)/C(=C\c2cc(C)n(C)c2C)C1=O
Second: Cc1cc(C(=O)COC(=O)CC2Sc3ccccc3NC2=O)c(C)n1-c1ccc2c(c1)OCO2 (centres unmarked)
The “hERG current change (%, negative = inhibition) at 10uM” value of the first is higher: 1.5% for the first, -4.58% for the second.

Going from `CCOC(=O)c1cc(NC(=O)c2ccc(Cl)cc2)c(=O)n2c1oc1ccc(Cl)cc12` to `CCN(C(=O)c1cc2cc(OC)ccc2oc1=O)c1cccc(C)c1`, the “hERG current change (%, negative = inhibition) at 10uM” value falls from 14% to 6.7%.

Going from `CC1(c2nnc(-c3ccccc3)o2)CC(c2cccc(Cl)c2)=NO1` (centres unmarked) to `O=C(O)C(c1ccccc1)N1C(=O)/C(=C\c2ccc(-c3cccc(Cl)c3)o2)SC1=S` (centres unmarked), the “hERG current change (%, negative = inhibition) at 10uM” value falls from 12.5% to -7.12%.

First: Cc1cccc(NC(=O)CSc2nnc(-c3ccco3)c(-c3ccco3)n2)c1C
Second: COc1ccc(C(=O)NC(CO)c2nnc(SCc3ccc(Cl)c(Cl)c3)n2C)cc1 (centres unmarked)
The “hERG current change (%, negative = inhibition) at 10uM” value of the first is lower: -66.4% for the first, -18.1% for the second.

Going from `Cn1c(SCC(=O)NCC2CCCO2)nc2c(c1=O)SCC2` (centres unmarked) to `Oc1[nH]c2ccc(Br)cc2c1N=NC(=S)NCC1CCCO1` (centres unmarked), the “hERG current change (%, negative = inhibition) at 10uM” value falls from 22.2% to -7.35%.

First: C[C@H](NC(=O)[C@@H]1CSC2c3ccccc3C(=O)N21)C(=O)NC1CCCCC1 (some centres unmarked)
Second: Cc1cccc(NC(=O)C2CCN(C(=O)c3ccccc3C)CC2)n1
The “hERG current change (%, negative = inhibition) at 10uM” value of the first is higher: 5.72% for the first, -17.6% for the second.

First: COc1cc(CN2CCN(C3CCC3)CC2CCO)cc(OC)c1 (centres unmarked)
Second: COc1cccc(CNC(=O)C2CCCN(c3ncnc4c3nc3n4CCCCC3)C2)c1 (centres unmarked)
The “hERG current change (%, negative = inhibition) at 10uM” value of the first is higher: 8.54% for the first, -55.6% for the second.

Compared with `O=C(CCNC(=O)Cn1ccc2ccccc2c1=O)NCCc1ccccc1Cl`, `CCOC(=O)CC(NC(=O)Cn1nnc(-c2ccccc2Cl)n1)c1ccc(OC)cc1` (centres unmarked) is higher in “hERG current change (%, negative = inhibition) at 10uM” value: -2.48% for the first, -0.135% for the second.

Compared with `COC(=O)c1cccc(NC(=S)N2CCOCC2)c1`, `CC1CN(S(=O)(=O)c2ccccc2)CN1C(=O)N1CCOCC1` (centres unmarked) is lower in “hERG current change (%, negative = inhibition) at 10uM” value: 33.2% for the first, 14.3% for the second.

First: O=C(CCC(=O)OCCCC(F)(F)C(F)(F)F)NC1CCCCC1
Second: O=C(NCc1ccccc1)C1(C(F)(F)F)C/C(=C\CCO)CCCO1 (centres unmarked)
The “hERG current change (%, negative = inhibition) at 10uM” value of the first is lower: 5.76% for the first, 11.9% for the second.

First: C=CCC1(/C=N/O)CCOC(C)(C)C1 (centres unmarked)
Second: Cc1ccc(/C=N/NC(=O)C2(C)CC2(Br)Br)cc1 (centres unmarked)
The “hERG current change (%, negative = inhibition) at 10uM” value of the first is higher: 16.7% for the first, 11.7% for the second.

Going from `Cc1ccccc1NC1C=CS(=O)(=O)C1` (centres unmarked) to `CC1=CCC2C(=O)N(Cc3ccccc3)C(=O)C2C1` (centres unmarked), the “hERG current change (%, negative = inhibition) at 10uM” value falls from 12.6% to -1.1%.

First: CCCN(CCC)c1ccc(/C=N/NC(=O)CN2CCOCC2)cc1
Second: CC1CCCN(C(=O)Cn2nnc(-c3ccc(N(C)C)cc3)n2)C1 (centres unmarked)
The “hERG current change (%, negative = inhibition) at 10uM” value of the first is lower: -38.2% for the first, 12.1% for the second.

Going from `CCCC(c1nnnn1C(C)(C)C)N1CCN(Cc2ccccc2)CC1.Cl` (centres unmarked) to `CCN(Cc1ccccc1)C(c1ccc(C)cc1)c1nnnn1C(C)(C)C` (centres unmarked), the “hERG current change (%, negative = inhibition) at 10uM” value rises from -18.5% to 5.54%.

First: O=S1(=O)N=C(N(Cc2cccs2)c2ccc(O)cc2)c2ccccc21
Second: COC(=O)c1ccc(-c2nn(C)c(=O)c3ccccc23)cc1
The “hERG current change (%, negative = inhibition) at 10uM” value of the first is lower: -39.1% for the first, -11.3% for the second.

Compared with `CC(C)(C)CC(C)(C)NCC(O)COCCOc1ccc(Br)cc1.Cl` (centres unmarked), `COc1ccc2cc(Br)ccc2c1CC(=O)NC(C)(C)C` is higher in “hERG current change (%, negative = inhibition) at 10uM” value: -32.8% for the first, 17.3% for the second.

First: COc1ccc(/C=C/C(=O)OCC(=O)c2ccc3c(c2)NC(=O)CO3)cc1
Second: Cc1ccc(OC(=O)c2ccc3snnc3c2)cc1
The “hERG current change (%, negative = inhibition) at 10uM” value of the first is higher: 24.7% for the first, -5.23% for the second.

First: O=C(C1CCCN(S(=O)(=O)c2cnc[nH]2)C1)N(CCc1ccccc1)Cc1ccccc1 (centres unmarked)
Second: O=C(Nc1nc(-c2ccccc2)cs1)C1CCCN(S(=O)(=O)c2cccc([N+](=O)[O-])c2)C1 (centres unmarked)
The “hERG current change (%, negative = inhibition) at 10uM” value of the first is lower: -17.3% for the first, 12.6% for the second.

Compared with `COc1ccccc1Nc1nc(N)nc(CSc2nccc(C)n2)n1`, `COc1ccc(-c2cc(C3CCN(c4cc(Cl)nc(N)n4)CC3)[nH]n2)cc1` is lower in “hERG current change (%, negative = inhibition) at 10uM” value: -0.726% for the first, -22.5% for the second.

Going from `C(#Cc1ccccc1)CN1CCOCC1.Cl` to `O=C1C(=O)N(CCN2CCOCC2)C(c2cccc(Cl)c2)/C1=C(/O)c1ccc2c(c1)OCO2` (centres unmarked), the “hERG current change (%, negative = inhibition) at 10uM” value falls from 22.9% to 17.9%.

First: CO.COC(=O)/C=C/c1c(C)[nH]c(=O)[nH]c1=O
Second: Cc1cc(C)cc(Oc2ccccc2/C=C\C(=O)O)c1
The “hERG current change (%, negative = inhibition) at 10uM” value of the first is higher: 7.87% for the first, 5.61% for the second.

Compared with `O=C(CN1C(=O)NC2(CCCC2)C1=O)OCCOc1ccccc1`, `O=C(C1CCCN1S(=O)(=O)c1cccc2cccnc12)N1CCc2ccccc21` (centres unmarked) is lower in “hERG current change (%, negative = inhibition) at 10uM” value: 5.02% for the first, -31.7% for the second.

First: CCCNC(=O)NC(=O)COc1ccc(-c2ccc(C#N)cc2)cc1
Second: Cc1ccc(NC(=O)OC(C)CNC(=O)Oc2cccc(C)c2)cc1 (centres unmarked)
The “hERG current change (%, negative = inhibition) at 10uM” value of the first is lower: 7.8% for the first, 25.5% for the second.

Going from `CC1(C)CC(=O)c2cc(OCC(=O)NCc3cccnc3)ccc2O1` to `CCOc1cc(CNCCc2c[nH]c3ccccc23)cc(Cl)c1OCC(N)=O.Cl`, the “hERG current change (%, negative = inhibition) at 10uM” value falls from -12.9% to -46.4%.

First: O=C(c1cccc(Br)c1)N1CCCc2ccccc21
Second: O=C(CN1C(=O)COc2ccccc21)Nc1ccc2c(c1)OCCO2
The “hERG current change (%, negative = inhibition) at 10uM” value of the first is higher: -0.718% for the first, -4.52% for the second.

Going from `CC(C(=O)Nc1cccnc1)N1C(=O)C2C3C=CC(C3)C2C1=O` (centres unmarked) to `CCOC(=O)c1cc(NC(=O)C2C3C=CC(O3)C2C(=O)O)cc(C(=O)OCC)c1` (centres unmarked), the “hERG current change (%, negative = inhibition) at 10uM” value falls from 2.28% to 2.13%.

First: CC1CN(S(=O)(=O)c2ccc(Cl)c(S(=O)(=O)N3CC(C)OC(C)C3)c2)CC(C)O1 (centres unmarked)
Second: Cc1ccc(CNC(=O)C2CCCN(S(=O)(=O)c3c(C)noc3C)C2)cc1 (centres unmarked)
The “hERG current change (%, negative = inhibition) at 10uM” value of the first is higher: 2.28% for the first, 0.604% for the second.

First: O=C(O)c1cc(C(F)(F)F)nc2ccccc12
Second: CC(=O)N/N=C(\C)CC(=O)Nc1cccc(C(F)(F)F)c1
The “hERG current change (%, negative = inhibition) at 10uM” value of the first is lower: 3.92% for the first, 4.47% for the second.

Compared with `CC1(C)CC(=O)C(C(C2=C(O)CC(C)(C)CC2=O)c2cccc(O)c2)C(=O)C1` (centres unmarked), `COc1cc(C)cc2oc(=O)c(CC(=O)N3C[C@H]4C[C@@H](C3)c3cccc(=O)n3C4)c(C)c12` is higher in “hERG current change (%, negative = inhibition) at 10uM” value: -8.94% for the first, -2.54% for the second.

Compared with `Cc1oc2ccccc2c1-c1cn2c(n1)SCC2`, `Cc1nn(C(C)(C)C)c(OC(=O)c2ccco2)c1Sc1ccccc1` is lower in “hERG current change (%, negative = inhibition) at 10uM” value: 0.711% for the first, -0.866% for the second.

Compared with `CC(=O)Nc1ccc(CNc2ncnc3ccc(-c4c(C)noc4C)cc23)cc1`, `C/C(=N\NC(=O)c1nnn(-c2nonc2N)c1-c1ccc2c(c1)OCO2)c1ccccc1` is higher in “hERG current change (%, negative = inhibition) at 10uM” value: -2.55% for the first, 5.41% for the second.

Going from `O=C(O)C1C2CCC(C2)C1C(=O)NCCc1ccc(F)cc1` (centres unmarked) to `O=C(NCCCN1CCCC1=O)C(=O)Nc1cccc(F)c1`, the “hERG current change (%, negative = inhibition) at 10uM” value falls from 26.2% to -30.1%.

Compared with `O=c1c(-c2ccc3c(c2)OCCO3)c(C(F)(F)F)oc2cc(O)cc(O)c12`, `Cc1ccc(NC(=O)C2CC(=O)N(c3ccc4c(c3)OCCO4)C2)cc1S(=O)(=O)N1CCCCCC1` (centres unmarked) is higher in “hERG current change (%, negative = inhibition) at 10uM” value: -9.07% for the first, 0.997% for the second.

Going from `Cc1cc(C)n(C(C)n2nc(C)cc2C)n1` to `COc1ccc(/C=N/n2c(-c3n[nH]c4c3CCC4)n[nH]c2=S)cc1OC`, the “hERG current change (%, negative = inhibition) at 10uM” value falls from 17.9% to 14%.

First: O=C(NCCCn1ccnc1)c1ccc(Cl)cc1[N+](=O)[O-]
Second: CCc1ccc(N2CC(C(=O)OC)CC2=O)cc1 (centres unmarked)
The “hERG current change (%, negative = inhibition) at 10uM” value of the first is lower: -25.4% for the first, -0.179% for the second.

`CC1CCCC(NC(=O)CSc2nccn2C)C1C.Cl` (centres unmarked) was tested, and the “hERG current change (%, negative = inhibition) at 10uM” value was 0.951%.
